Source: patent US20190194291A1 (Hoffmann-La Roche, published 2019)

Tests used:
[1] = target: T1, human 4-1BB (CD137) on cells (human, UniProt Q07011 24-255); assay: cell-based or functional assay
human FAP on cells [2] = target: T2, human FAP on cells (human, UniProt Q12884 1-760); assay: cell-based or functional assay
human FAP on cells [3] = target: T2, human FAP on cells; assay: flow cytometry on FAP-expressing MV-3 cells, PE anti-human IgG detection (FIGS. 9A and B)
human FAP on cells [4] = target: T2, human FAP on cells; assay: flow cytometry on FAP-expressing WM-266-4 cells, PE anti-human IgG detection (FIGS. 9A and B)
[5] = target: T1, human 4-1BB (CD137) on cells; assay: flow cytometry on activated human PBMCs (anti-CD3/anti-CD28), gated on CD4+ T cells, PE anti-human IgG detection
[6] = target: T1, human 4-1BB (CD137) on cells; assay: flow cytometry on activated human PBMCs (anti-CD3/anti-CD28), gated on CD8+ T cells, PE anti-human IgG detection
[7] = target: T1, human 4-1BB (CD137) on cells; assay: flow cytometry on activated human PBMCs (anti-CD3/anti-CD28), gated on gamma-delta T cells, PE anti-human IgG detection
[8] = target: T3, monomeric human 4-1BB avi His (human); assay: SPR (Biacore T200, 25 C): construct captured on anti-human Fc antibody, human 4-1BB avi His 2.7-2000 nM as analyte, 1:1 Langmuir fit, average of three experiments
T3 construct: The entry holds the ectodomain together with the avi tag and the His tag; also called human 4-1BB His; Recombinant human 4-1BB avi his
Experimental: All SPR experiments were performed on a Biacore T200 at 25° C. with HBS-EP as running buffer (0.01 M HEPES pH 7.4, 0.15 M NaCl, 3 mM EDTA, 0.005% Surfactant P20, Biacore, Freiburg/Germany).
The dissociation was monitored for 120 seconds. Bulk refractive index differences were corrected for by subtracting the response obtained on reference flow cell.

B1: monovalent FAP(4B9)-targeted 4-1BB ligand (71-248) trimer-containing Fc (kih) fusion antigen binding molecule (Construct 2.11) (Fc fusion)
chain: DKTHTCPPCPAPEAAGGPSVFLFPPKPKDTLMISRTPEVTCVVVDVSHEDPEVKFNWYVDGVEVHNAKTKPREEQYNSTYRVVSVLTVLHQDWLNGKEYKCKVSNKALGAPIEKTISKAKGQPREPQVCTLPPSRDELTKNQVSLSCAVKGFYPSDIAVEWESNGQPENNYKTTPPVLDSDGSFFLVSKLTVDKSRWQQGNVFSCSVMHEALHNHYTQKSLSLSPGGGGGSGGGGSREGPELSPDDPAGLLDLRQGMFAQLVAQNVLLIDGPLSWYSDPGLAGVSLTGGLSYKEDTKELVVAKAGVYYVFFQLELRRVVAGEGSGSVSLALHLQPLRSAAGAAALALTVDLPPASSEARNSAFGFQGRLLHLSAGQRLGVHLHTEARARHAWQLTQGATVLGLFRVTPEIPAGLGGGGSGGGGSREGPELSPDDPAGLLDLRQGMFAQLVAQNVLLIDGPLSWYSDPGLAGVSLTGGLSYKEDTKELVVAKAGVYYVFFQLELRRVVAGEGSGSVSLALHLQPLRSAAGAAALALTVDLPPASSEARNSAFGFQGRLLHLSAGQRLGVHLHTEARARHAWQLTQGATVLGLFRVTPEIPAGL
heavy: EVQLLESGGGLVQPGGSLRLSCAASGFTFSSYAMSWVRQAPGKGLEWVSAIIGSGASTYYADSVKGRFTISRDNSKNTLYLQMNSLRAEDTAVYYCAKGWFGGFNYWGQGTLVTVSSASTKGPSVFPLAPSSKSTSGGTAALGCLVKDYFPEPVTVSWNSGALTSGVHTFPAVLQSSGLYSLSSVVTVPSSSLGTQTYICNVNHKPSNTKVDKKV[human IgG1 Fc with changes omitted here]GGGGSGGGGSREGPELSPDDPAGLLDLRQGMFAQLVAQNVLLIDGPLSWYSDPGLAGVSLTGGLSYKEDTKELVVAKAGVYYVFFQLELRRVVAGEGSGSVSLALHLQPLRSAAGAAALALTVDLPPASSEARNSAFGFQGRLLHLSAGQRLGVHLHTEARARHAWQLTQGATVLGLFRVTPEIPAGL
light: EIVLTQSPGTLSLSPGERATLSCRASQSVTSSYLAWYQQKPGQAPRLLINVGSRRATGIPDRFSGSGSGTDFTLTISRLEPEDFAVYYCQQGIMLPPTFGQGTKVEIKRTVAAPSVFIFPPSDEQLKSGTASVVCLLNNFYPREAKVQWKVDNALQSGNSQESVTEQDSKDSTYSLSSTLTLSKADYEKHKVYACEVTHQGLSSPVTKSFNRGEC
notes: Human IgG1 Fc knob-into-hole with P329G, L234A, L235A; one FAP(4B9) Fab on the knob chain; split trimeric human 4-1BBL fused to the C-termini of the Fc chains
EC50 [nM] of NFkB-activation-induced Luciferase activity-curves, on 3T3-huFAP [1]: 0.08 nM | EC50 [nM] of NFkB-activation-induced Luciferase activity-curves, on MV-3 [1]: 0.18 nM | EC50 [nM] of CD25-upregulation on CD8+ T cells (human FAP on cells [2]): 0.07 nM | EC50 [nM] of CD137 (4-1BB)-upregulating on CD8+ T cells (human FAP on cells [2]): 0.11 nM | EC50 (human FAP on cells [3]): 0.82 nM | EC50 (human FAP on cells [4]): 1.16 nM | EC50 [5]: 0.28 nM | EC50 [6]: 0.41 nM | EC50 [7]: 0.36 nM | Kd [8]: 347 nM | koff [8]: 0.0263 s⁻¹ | kon [8]: 76200 M⁻¹ s⁻¹
